Reference: PubChem BioAssay (NCI)
Where “and” joins values, the source holds several entries; their conditions need not be identical. Identical values can stand only once.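 Step 1: Grow cells in 96-well plates. Step 2: Expose to compound for 48 hours at 5 concentrations. Step 3: Interpolate endpoints linearly; if unreached, use highest concentration. GI50 = concentration required for 50% inhibition of growth. TGI marks complete inhibition of growth.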

System: NCI-H322M lung
Assay: DTP human tumour cell line panel, 48 h

Row | SMILES | TGI | GI50
1 | CN(C)CCNc1ncnc2nc(-c3ccc4ccccc4c3)[nH]c12 | > 100 µM | 
2 | CC[C@@]1(O)C(=O)OCc2c1cc1n(c2=O)Cc2cc3cc(N)ccc3nc2-1 |  | 0.0718 µM and 0.0304 µM
3 | COc1ccc2nc3cc(Cl)ccc3c(NCCNCCCNC(=O)c3cc(-c4ccccc4)nc4ccccc34)c2c1 | > 100 µM | 
4 | Cn1c(=O)c2c(ncn2CN2CCN(Cn3cnc4c3c(=O)n(C)c(=O)n4C)CC2)n(C)c1=O | > 100 µM | 
5 | Cn1c2ccccc2c2c3c(c4c5ccccc5n(C)c4c21)C(=O)c1ccccc1C3=O | > 100 µM | 
6 | O=S1(=O)c2ccccc2NC(=S)CC1c1ccccc1 (stereo unspecified) | > 100 µM | 
7 | Cn1cc(CNCC2CCN(c3ncc(C(=O)NO)cn3)CC2)c2ccccc21 | 5.03 µM | 0.0204 µM
8 | NCCCCNCCCNC(=O)c1nc(-c2csc(CCN)n2)sc1Cl | > 100 µM | 
9 | C[N+](C)(C)c1ncnc2c1ncn2C1CCCCO1 (stereo unspecified) | > 100 µM | 
10 | COc1cc2c(/C=C3/C(=O)N(c4ccccc4)c4ccccc43)c(Cl)[nH]c2cc1C | > 49.1 µM | 
11 | COc1cc(S(C)(=O)=O)ccc1Nc1nc2ccc(-c3ccc(NC(=O)[C@H](C)c4ccc(F)cc4)cc3)cn2n1 | > 100 µM | > 100 µM
12 | CN[C@@H]1C[C@H]2O[C@@](C)([C@@H]1OC)n1c3ccccc3c3c4c(c5c6ccccc6n2c5c31)C(=O)N[C@@H]4O | 2.31 µM | 
13 | CC(=O)c1cc2ccccc2n(O)c1=N | > 100 µM | 
14 | S=c1nc(-c2cccnc2)[nH][nH]1 | > 100 µM | 
15 | Cc1nc(C(N)=S)sc1C(=O)C/C(=N/N)C(=O)Nc1cccc(Cl)c1C | > 100 µM | 
16 | CC1(C)Oc2ccc(NC(=O)CCC(N)C(=O)O)cc2O1 (stereo unspecified) | > 100 µM | 
17 | CC(C)(C)OC[C@H](O)CC#N | > 100 µM | 
18 | CC1(C)C2CCC3(C2)CS(=O)(=O)N2OC231 (stereo unspecified) | > 100 µM | 
19 | CCOC(=O)C(=O)Nc1c(C(C)C)cccc1C(C)C | > 100 µM | 
20 | COC(=O)CCCCCN=Cc1c(O)c(O)c(C(C)C)c2cc(C)c(-c3c(C)cc4c(C(C)C)c(O)c(O)c(C=NCCCCCC(=O)OC)c4c3O)c(O)c12 | > 32.5 µM | 2.02 µM
21 | Cc1ccc(S(=O)(=O)c2c(O)c3ccccc3n(C)c2=O)cc1 | > 100 µM | 
22 | CCOC(=O)C(/C=N\C(=S)Nc1ccc(OCC)cc1)=C(/O)c1ccccc1 | > 100 µM | 
23 | CSc1ccc(/C=C2\C=C(CC(=O)NCc3ccc(C(=O)c4ccccc4)cc3)c3cc(F)ccc32)cc1 | > 100 µM | 1.72 µM

Row | SMILES | TGI | GI50
24 | CCOC(=O)[C@H]1Nc2ccc(OC)cc2C2c3ccccc3CC21 (stereo partly specified) | > 100 µM | 
25 | O=c1oc2ccc(Cl)cc2cc1-c1cn2cc(Cl)ccc2n1 | > 100 µM | 
26 | CC(=O)c1cc2c(s1)C(=O)c1ccccc1C2=O | > 100 µM | 
27 | COC(=O)c1nc(N)[nH]c(=O)c1CCCCCc1c(C(=O)OC)nc(N)[nH]c1=O | > 50 µM | 
28 | NC(N)=NS(=O)(=O)c1ccc(NC(=O)c2ccc3nc4ccccc4c(Nc4ccc(S(N)(=O)=O)cc4)c3c2)cc1 | > 100 µM | 
29 | O=[N+]([O-])c1nccn1COCCBr | > 100 µM | 
30 | O=c1ccc(=O)c2c(=O)c3ccccc3c(=O)c1=2 | > 100 µM | 
31 | O=C([CH-]C(=O)C(F)(F)F)c1ccccc1.O=C([CH-]C(=O)C(F)(F)F)c1ccccc1.O=C([CH-]C(=O)C(F)(F)F)c1ccccc1.O=C([CH-]C(=O)C(F)(F)F)c1ccccc1.[Eu+3].c1ccncc1 | > 100 µM | 15.1 µM
32 | COC(=O)CCC1=C(C)/C(=C/c2[nH]c(-c3ccc[nH]3)cc2OC)N=C1C | 11.6 µM | 1.37 µM
33 | O=C1C(Br)=C(c2ccccc2)S(=O)c2ccccc21 (stereo unspecified) | 30.7 µM | 
34 | CSc1cc(N)ccc1N=Nc1ccc(S(N)(=O)=O)cc1 | > 100 µM | 
35 | CC1(COS(=O)(=O)OCC2(C)COS(=O)(=O)OC2)COS(=O)(=O)OC1 | > 100 µM | 
36 | CCN(CCNc1ccc(C)c2sc3ccccc3c(=O)c12)CC(C)(C)O | 41.9 µM | 15.7 µM
37 | CN(C)C(=O)O[C@@H]1CN[C@@H](C#Cc2cc3ncnc(Nc4ccc(OCc5cccc(F)c5)c(Cl)c4)c3s2)C1 | > 20.2 µM | 7 µM
38 | COC(=O)c1c(-c2ccccc2)sc(-c2cccc3ccccc23)c1C(=O)OC | > 100 µM | 
39 | CC(C)OP(=O)(OC(C)C)C(C(C)C)N(C)/C(F)=N/C(F)(F)F (stereo unspecified) | > 100 µM | 
40 | COc1ccc(Cl)cc1Nc1nc(C(F)(F)F)ccc1C(=O)N/N=C/c1cc(OC)c(OC)c(OC)c1 | 4.84 µM | 0.77 µM
41 | NNC(=S)N1CCN(C(=S)NN)CC1 | > 100 µM | 
42 | CC(C)CNC(=O)Cn1c(-c2ccccc2)cc2ccccc21 | > 100 µM | 
43 | CC1(Cl)CC2C(CC1Sc1nnnn1-c1ccccc1)C2(C)C (stereo unspecified) | > 100 µM | 
44 | O=c1[nH]c2cc3[nH]c4ncccc4c(=O)c3cc2[nH]1 | > 10 µM | 
45 | CCO/C(O)=C(/C(=N)N1CCCC1)C(=O)Nc1cccc(C(F)(F)F)c1 | > 100 µM | 
46 | COc1ccc(/C=C2\N=C(c3ccccc3)N(C3Nc4cc5c(cc4S3)NC(N3C(=O)/C(=C/c4ccc(OC)cc4)N=C3c3ccccc3)S5)C2=O)cc1 (stereo unspecified) | > 100 µM | 

Row | SMILES | TGI | GI50
47 | C=C1C(=O)O[C@H]2C[C@@]3(C)[C@H](O)CCC(=C)[C@@H]3[C@@H](OC(C)=O)[C@H]12 | 42.5 µM | 
48 | N#CC(NNC(=O)c1ccccc1O)c1cccc(O)c1 (stereo unspecified) | > 100 µM | 
49 | CC(C)N(C)C(=O)C12C3C4C1C1C2C3C41C#N (stereo unspecified) | > 100 µM | 
50 | O=C(NCCCNCCNC(=O)c1cc(-c2ccccc2)nc2ccccc12)c1cc(-c2ccccc2)nc2ccccc12 | 6.07 µM | 
51 | COc1cc(/C=C2/N=C(c3ccccc3)N(C3=NNC4(C(=O)N3)c3ccccc3-c3ccccc34)NC2=O)ccc1O | 55.3 µg/mL | 29.6 µg/mL
52 | COc1ccc(C2C(C#N)=C(S)N(C3OC(CO)C(O)C(O)C3O)C(c3ccccc3)=C2C(C)=O)cc1 (stereo unspecified) | > 100 µM | 
53 | Cc1c2c(OCCCCN3CCN(c4ncccn4)CC3)nn(C)c(=O)c2c(C)n1-c1ccccc1 | 36 µM | 
54 | CC(=O)O[C@@H]1C2C(=O)OC(=O)C2C2CCC[C@]23O[C@H]13 (stereo partly specified) | > 100 µM | 
55 | Cc1ccc(NC(=O)Cn2c(Br)nc3c2c(=O)n(C)c(=O)n3C)cc1 | 13 µM | 3.68 µM
56 | CN1C(=O)C(Cl)(C(Cl)(Cl)S(=O)(=O)O)C(=O)c2ccccc21 (stereo unspecified) | > 100 µM | 
57 | OC12CC/C(=N/OCc3ccccc3)CC1c1ccccc12 (stereo unspecified) | > 100 µM | 
58 | O=C1CC(=O)OC(c2ccc([N+](=O)[O-])cc2)O1 | 14.4 µM | 3.53 µM
59 | COC(=O)C1=C(CS(=O)c2ccccc2[N+](=O)[O-])ON(C)C1c1ccccc1 (stereo unspecified) | > 100 µM | 
60 | Cc1cc(C)n(CN(Cn2nc(C)cc2C)C2CCCCC2)n1 | > 100 µM | 
61 | Cn1nc(S(N)(=O)=O)s/c1=N/C(N)=S | > 100 µM | 
62 | S=C(S)NCC1CCC(CNC(=S)S)CC1 (stereo unspecified) | > 100 µM | 
63 | Cc1ccc(SC(=O)N2C(=S)NC(=NC3CCCCC3)C23CCCCC3)cc1 | > 100 µM | 
64 | COc1cc(Br)c(C=Nc2cccc3ccc(OS(=O)(=O)c4cccc([N+](=O)[O-])c4)cc23)cc1OC | > 100 µM | 
65 | CCOC(=O)c1cc(/C=C/C(C)=C/C(=O)OC)n(C)c1C | > 100 µM | 
66 | Cc1cc(N/N=C/c2nc(-c3ccc(Cl)cc3)oc2C)c2cc(Cl)ccc2n1 | 11.5 µM | 3.08 µM
67 | Nc1ccc2[nH]c(C(=O)N3CC(CCl)c4c3cc(N)c3ccccc43)cc2c1 (stereo unspecified) | < 0.01 µM | 
68 | CSC1=NS(=O)(=O)c2cc(C(=O)NN(C)C(=O)c3cc4c(cc3Cl)SC(SC)=NS4(=O)=O)c(Cl)cc2S1 | > 10 µM | 
69 | COc1c2cc(C(C)(C)C)cc1Cc1cccc(c1O)Cc1cc(C(C)(C)C)cc(c1OC)Cc1cccc(c1O)Cc1cc(C(C)(C)C)cc(c1OC)Cc1cccc(c1O)C2 | > 100 µM | 

Row | SMILES | TGI | GI50
70 | COC(=O)C1=C(C(=O)OC)SC(=C(Cl)C(=S)Sc2ccccc2N)S1 | > 100 µM | 63.5 µM
71 | O=[N+]([O-])c1ccc2c(c1)[O][Sn][O]2 | > 150 µg/mL | > 150 µg/mL
72 | Cc1c(NC2(C)C(=O)N(/N=C/c3ccccc3)N=C2c2ccccc2)n[nH]c1-c1ccccc1 (stereo unspecified) | > 100 µM | 
73 | N.N.N.N.N.N.O=N[O-].[Br-].[Co+3].[Co+3].[OH3+].[OH3+] | > 100 µM | > 100 µM
74 | CN=C1SC(=Nc2ccc(N(C)C)cc2)N1C | > 100 µM | 
75 | O=C1CCC(O)=C1O | > 100 µM | 
76 | COc1cc(S(=O)(=O)Nc2ccc(-c3csc(N4C(=O)CSC4c4ccccc4)n3)cc2)ccc1Cl (stereo unspecified) | > 100 µM | 
77 | CC(C)[C@H]1C(=O)N[C@@H](CCCN=C(N)N)C(=O)NCC(=O)N[C@@H](CC(=O)O)C(=O)N[C@H](Cc2ccccc2)C(=O)N1C | > 100 µM | > 100 µM
78 | O=C(N[C@H]1c2ccsc2/C(=N/O)[C@H]1O)C(F)(F)F | > 100 µM | 
79 | CNC(=S)N/N=C/c1ccc([N+](=O)[O-])s1 | > 10 µM | 
80 | c1nnc(NCNc2nncs2)s1 | > 100 µM | 
81 | Fc1cccc(Cl)c1/C=N\N=C1c2ccccc2-c2ccccc21 | > 100 µM | 
82 | Cc1ccc(-c2n[nH]c(=O)[nH]2)cc1[N+](=O)[O-] | > 100 µM | 
83 | CCC(c1cccc(O)c1)C(CC)c1cccc(O)c1 (stereo unspecified) | 23.6 µM | 4.32 µM
84 | C1=CC=C2NCCOCCNC3=CC=CC=CC3=NCCOCCN=C2C=C1 | > 100 µM | 
85 | COC1CC(OC(=O)c2ccccc2)C(OC(=O)c2ccccc2)C(C)O1 (stereo unspecified) | > 100 µM | 
86 | O=c1[nH]c(N/N=C\C(O)C(O)C(O)CO)nc2ccccc12 (stereo unspecified) | > 100 µM | 
87 | Oc1ccc(CCc2cc(O)cc(O)c2)cc1 | > 100 µM | 
88 | Cc1ccc2c(c1)C(c1cccc3ccccc13)OC2=O (stereo unspecified) | > 100 µM | 
89 | Cc1cc(=O)oc2cc(O)c(CN(C)CC(=O)O)cc12 | > 100 µM | 
90 | NC(=O)c1ccc(C2C3=C(CCCC3=O)OC3=C2C(=O)c2ccccc2C3=O)cc1 (stereo unspecified) | 5.05 µM | 2.07 µM
91 | O=c1[nH]c(=O)n(C2OC3COC2C3O)cc1F (stereo unspecified) | > 100 µM | 
92 | CC(=Nc1ccncc1)C(C)=Nc1ccncc1 | > 100 µM | 
